Measurements from patent US9012606B2, “In vivo half life increased fusion protein or peptide maintained by sustained in vivo release, and method for increasng in vivo half-life using same” (Alteogen, Inc., priority 2009, dated 2015).

Legend:
[1] = Pharmacokinetics of hGH and hGH/alpha-1 antitrypsin fusions (serum ELISA); type: in vivo; conditions: Sprague-Dawley rats, subcutaneous, 720 μg/kg
Protocol: An anti-human growth hormone monoclonal antibody (Medix Biochemica, Finland) was diluted to a concentration of 1-5 μg/mL in phosphate buffered saline (PBS) and the dilution was aliquoted in an amount of 100 μL/well onto a 96-well plate (Nunc, Denmark) and incubated at room temperature for 15-18 hrs. After the antibody remaining suspended was removed, PBS containing 1% bovine serum albumin was plated in an amount of 250 μL/well and incubated at room temperature for 2 hours. The plates were washed three times with wash buffer (0.05% Tween 20, PBS) and the solution was aspirated. Samples were diluted in PBS containing 1% bovine serum albumin and added to the 96-well plates before incubation at room temperature for 2 hrs. […] To each well was added 100 μL of 1 M sulfuric acid to terminate the reaction, followed by measuring absorbance at 450 nm on a VersaMax microplate reader (Molecular Device, U.S.A.). Values for each sample were calculated by regression analysis after a standard curve was plotted for a reference material.
Sprague-Dawley rats were used as experimental animals and three of them were administered with human growth hormone while five rats were assigned to each of the fusion-administered groups. […] Each sample was analyzed in the same manner as the enzyme immunoassay of Test Example 1.

[2] = test system: rat lymphoma cell line (NB2 cell); assay: In vitro activity in NB2 cells (MTS method); type: cell-based; conditions: 48 hrs
Protocol: The rat lymphoma cell line (NB2 cell) was maintained in RPMI1640 supplemented with 10% HS (Horse serum), 10% FBS, 2-mercaptoethanol and antibiotics at 37° C. under a 5% CO2 condition. For 24 hrs before experiment, NB2 cells were incubated in RPMI 1640 supplemented with 10% HS. Thereafter, the NB2 cells were washed once with 1×DPBS (Dulbecco's Phosphate Buffered Saline), and plated at a density of 2×10^4 cells/100 μL/well in 5% HS-supplemented RPMI 1640 in 96-well plates (Corning, U.S.A.) with final volume of 100 μL. A series of concentrations of the samples were added in an amount of 20 μL to each well of the 96-well plates, followed by incubation at 37° C. for 48 hrs under a 5% CO2 condition. Subsequently, 20 μL of an MTS solution (Promega, U.S.A.) was added to each well of the 96-well plates and allowed to react at 37° C. for 3 hrs under a 5% CO2 condition. The reaction was terminated by adding 20 μL of 10% SDS (sodium dodecyl sulfate) to each well. Absorbance was measured at 490 nm using a VersaMax microplate reader (Molecular Device, U.S.A.).

B1: human growth hormone/alpha-1 antitrypsin divariant fusion (protein)
chain: EDPQGDAAQKTDTSHHDQDHPTFNKITPNLAEFAFSLYRQLAHQSNSTNIFFSPVSIATAFAMLSLGTKADTHDEILEGLNFNLTEIPEAQIHEGFQELLRTLNQPDSQLQLTTGNGLFLSEGLKLVDKFLEDVKKLYHSEAFTVNFGDTEEAKKQINDYVEKGTQGKIVDLVKELDRDTVFALVNYIFFKGKWERPFEVKDTEEEDFHVDQVTTVKVPMMKRLGMFNIQHCKKLSSWVLLMKYLGNATAIFFLPDEGKLQHLENELTHDIITKFLENEDRRSASLHLPKLSITGTYDLKSVLGQLGITKVFSNGADLSGVTEEAPLKLSKAVHKAVLTIDEKGTEAAGAMFLEAINMTIPPEVKFNKPFVFLMIDQNTKSPLFMGKVVNPTQKGGGGS[sequence of about 200 residues omitted]
modifications: T109T [alpha-1AT(P357N, S359T)/hGH]
notes: hGH fused to C-terminus of alpha-1 antitrypsin divariant P357N, S359T
[1]
  serum half-life (t1/2): 4.9 h
  time to peak serum concentration (Tmax): 12.8 h
[2]
  EC50: 0.217 nM
